# Source: the supplement of paper PMC12217912
# The other results are listed elsewhere or left out. Sequences were assembled here from the parent chain. Inactive controls read about 0.05.
# B1: TEV protease; numbered along this chain (parent)
# chain: MGESLFKGPRDYNPISSSICHLTNESDGHTTSLYGIGFGPFIITNKHLFRRNNGTLVVQSLHGVFKVKDTTTLQQHLVDGRDMIIIRMPKDFPPFPQKLKFREPQREERICLVTTNFQTKSMSSMVSDTSCTFPSGDGIFWKHWIQTKDGQCGSPLVSTRDGFIVGIHSASNFTNTNNYFTSVPKNFMELLTNQEAQQWVSGWRLNADSVLWGGHKVFMVKPEEPFQPVKEATQL
# Variants of: B1
# Assay: raw area under fraction-flipped curve 0-4 h after induction (AUC4h, not background-subtracted), DNA-recorder readout of cleavage of the substrate (dimensionless); higher = more cleavage of the substrate by the protease variant
# Conditions: temperature: 34 °C; time window: 0-4 h after rhamnose induction
# 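Note: Bxb1 expression induced with 0.2% (w/v) L-rhamnose at OD600 near 0.5, cultures sampled hourly, flipped fraction per protease–substrate barcode pair counted by paired-end Illumina sequencing.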
Variant,area with substrate ENLFFQS,area with substrate ENLGFQS,area with substrate ENLIFQS,area with substrate ENLNFQS,area with substrate ENLPFQS,area with substrate ENLRFQS,area with substrate ENLVFQS,area with substrate ENLWFQS,area with substrate ENLHFQS,area with substrate ENLLFQS
A207N,0.0767,0.0598,0.0681,0.0668,0.0593,0.0678,0.0772,0.0441,–,–
A207P,0.0747,–,0.0683,–,0.0873,0.0684,–,0.0581,0.0732,0.0811
Q194L,0.111,0.0542,–,0.0589,0.0734,0.0622,0.0958,–,0.0814,0.069
H168C,0.043,0.0575,–,–,–,–,–,0.0521,0.059,0.0581
V229I,0.0901,–,–,0.0614,0.0475,0.0673,0.113,0.0684,0.0708,–
G138N,–,–,–,0.0632,0.0588,–,–,–,0.0557,0.107
D69T,0.0779,–,0.0576,0.0496,0.0628,–,–,–,0.0989,0.0631
D82R,–,0.0452,0.0549,0.0567,–,–,–,–,–,–
V165A,–,–,0.0589,0.0549,0.0426,0.0564,–,0.0269,0.0457,0.0507
G166L,–,–,0.0513,0.0456,–,0.06,–,0.0464,–,0.0572
Q105E,0.0487,0.0402,–,0.0789,0.0529,–,–,–,0.0702,–
E189A,–,–,–,0.0649,–,–,–,0.0544,–,–
T71P,0.0856,–,–,0.0896,0.0432,0.0602,0.0784,0.0647,0.0618,–

# Same assay, conditions: temperature: 34 °C; time window: 0-4 h after rhamnose induction
Variant,area with substrate ENLKFQS,area with substrate ENLQFQS,area with substrate ENLSFQS,area with substrate ENLMFQS,area with substrate ENLTFQS,area with substrate ENLEFQS
Q194L,0.0847,0.0663,0.0779,–,–,–
H168C,0.0536,0.0576,0.0628,0.0649,–,–
V229I,0.0804,–,–,–,0.0617,–
G138N,0.0558,–,–,0.0695,–,–
D69T,0.0554,–,–,–,0.0566,–
D82R,0.0637,–,–,–,–,–
V165A,–,0.0344,0.06,–,–,0.0468
G166L,0.0415,–,0.042,–,–,–
Q105E,0.0703,–,0.0653,–,–,–
E189A,–,–,–,–,–,0.0611
T71P,0.0618,–,–,–,–,–
